Measurements as given in the supplement of paper PMC3334620.
Whole data set: some 33,000 sequences, median “E-score (-0.5 to 0.5)” near -0.032, cut for the highest 2% near 0.36. The list shows a part of the results.

Each sequence was assayed against T1, Sko1 (UniProt Q02100) (assay: PBM E-score (8-mer binding enrichment) (E-score (-0.5 to 0.5)); higher = stronger / more preferred TF binding; most listed sequences are background and not binding sites). Conditions: protein concentration: 200 nM; construct: GST-full length.
T1 sequence: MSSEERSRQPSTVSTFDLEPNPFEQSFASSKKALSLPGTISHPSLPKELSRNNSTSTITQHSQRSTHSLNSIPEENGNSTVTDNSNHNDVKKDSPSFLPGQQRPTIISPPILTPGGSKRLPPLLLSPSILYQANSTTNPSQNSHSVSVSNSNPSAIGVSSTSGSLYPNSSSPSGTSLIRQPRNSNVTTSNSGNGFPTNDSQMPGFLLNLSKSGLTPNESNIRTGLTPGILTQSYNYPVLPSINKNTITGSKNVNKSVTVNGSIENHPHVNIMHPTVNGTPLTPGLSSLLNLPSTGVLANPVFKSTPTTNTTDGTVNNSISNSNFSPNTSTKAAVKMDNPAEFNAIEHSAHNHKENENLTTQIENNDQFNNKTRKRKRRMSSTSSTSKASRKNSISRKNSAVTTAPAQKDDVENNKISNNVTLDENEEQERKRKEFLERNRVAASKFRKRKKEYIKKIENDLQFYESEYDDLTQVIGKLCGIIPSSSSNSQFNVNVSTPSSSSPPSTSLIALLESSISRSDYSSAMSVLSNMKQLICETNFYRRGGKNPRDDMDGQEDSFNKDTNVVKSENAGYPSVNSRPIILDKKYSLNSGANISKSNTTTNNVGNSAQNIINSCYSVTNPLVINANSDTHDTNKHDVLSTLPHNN
Procedure, shortened: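 Each ungapped eight-base word and its reverse complement, pooled, received an E-score from the Universal PBM Analysis Suite. Underlying scans, normalised with masliner, recorded fluorescent anti-GST bound to GST-tagged yeast transcription factors. These were applied at about 100-200 nM to universal all-10-mer Agilent arrays double-stranded by primer extension.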

Sequence | PBM E-score
ATCCCCAA | -0.0184
AGGGTGGA | -0.198
ACTTACGA | 0.309
ATAACCTC | -0.0134
CAGTGTAG | -0.0539
ATAGTATG | 0.179
CACCCGCC | -0.0697
CCCTGGCA | -0.34
TAGGAGGA | -0.0884
ACCTCAAA | 0.0158
GGAACTAC | -0.033
CGGGAAGC | -0.274
GAAAAACA | -0.00811
GCTTTGCA | -0.122
CTGGCGCA | -0.184
CTTACGGC | -0.277
AAACCGGA | -0.103
AACCTTTA | -0.0865
CCGTCCTC | -0.288
AACACCCC | -0.224
CTTTTAGA | 0.0647
CCAAGTAA | 0.133
GTGCCCAC | -0.0942
GACACAGC | -0.0494

Sequence | PBM E-score
CCCCCGCC | -0.431
AGAGTTAT | -0.071
GACGAGTA | 0.174
AACGCTAG | -0.185
CCATCATC | 0.0168
ACGTCTCT | 0.313
CGATGTCA | 0.275
AGAACGAG | 0.0155
TCCAGGCA | 0.0851
ATATCAAC | 0.141
ATATATAT | 0.235
GCTCACAA | -0.017
CGTCCAAC | 0.147
ACCGCGTG | -0.0861
CTAGGCTC | -0.192
AAGACACA | 0.0903
GTCCCGAA | -0.294
ACCGGGTA | -0.112
CAGCATGA | -0.0784
AAATATCT | -0.00788
AGTCGCAG | -0.204
TCCTACAA | 0.0613
GGTTGGAA | -0.26
ACCAGGCT | -0.243

Sequence | PBM E-score
GCCCCGTA | -0.181
CAACCCAA | 0.084
GGCCACTA | -0.0906
TGCCCACA | -0.164
ATGAGTAG | 0.0656
CGAGACAG | -0.0122
ACGTTGTC | 0.326
GCCCTAGA | -0.172
CATGAGCG | 0.121
GACCTATC | -0.275
AATAAACT | 0.0719
GAAAGTTA | 0.221
AAGCACGC | 0.141
ATGGTCCG | 0.0419
CCCCCCGA | -0.293
GTCCTGCA | -0.184
ACATTTCG | 0.137
CAAGAAAC | 0.101
CGGTGTTA | -0.145
ATGCGGGC | -0.141
ACATCAGT | 0.179
ATGCACGC | 0.233
CGTACAAC | 0.165
GATCGCCC | -0.171

Sequence | PBM E-score
ACTAGGTC | -0.0173
TCTTATCA | 0.238
CGATTTAC | 0.132
AATGTTTA | 0.139
ATTACCCA | 0.0535
CGACGGCC | -0.173
ACGAGCCG | -0.0783
ACAAGCTA | 0.0493
TGAATTAA | 0.235
CCTTCACC | -0.303
AGATTGGG | -0.00147
ACGGGGTG | -0.175
AAAACGCT | 0.121
AGGAATTC | -0.187
ACCGTCCA | -0.257
CAACTATA | 0.105
CACCGCGA | -0.0959
ATGCAGCA | -0.0878
CAACGGTG | -0.327
AAAATTTC | 0.0871
ACGTCAAT | 0.46
CCTCGGCG | -0.0614
